Experimental data from patent US20020002179A1, “TERAZOSIN IN THE CHRONIC TREATMENT OF THE URINARY SYMPTOMS ASSOCIATED WITH BENIGN PROSTATIC HYPERPLASIA” (priority 1993, published 2002).

System: patients with urinary symptoms associated with BPH (prostatism)
Assay: Boyarsky Symptom Index scores in long-range multicenter open-label study of terazosin in prostatism
Type: in vivo, human
Description: Data from patients who have participated in the study up to two and one-half years are currently available.
. Patients with evidence of prostate cancer were excluded from the study.
The primary measures of efficacy in these studies were changes in the peak urine flow rate and urinary symptom scores on the Boyarsky Symptom Index. Peak flow rates and voided urine volumes were determined in the standing position, approximately twenty-four hours after dosing using a Dantec Urodyn 1000 uroflowmeter. A minimum voided urine volume of 125-150 mL was required for a valid urine flow rate determination. Peak flow rates and voided volumes were recorded electronically for each determination.
Obstructive urinary symptoms associated with BPH include urinary hesitancy, intermittency, terminal dribbling, impairment in the size and force of the urinary stream, and the sensation of incomplete emptying of the bladder. Irritative symptoms include daytime frequency of urination, nocturia, a sensation of urgency, and dysuria.
Prior to initiation of the clinical trials, experts in urology were consulted regarding what, in their estimation, would constitute a clinically meaningful change in symptom scores and peak flow rates. On the recommendation of these experts, a clinically important change in either variable was defined as a 30% improvement over baseline.

**Q.** With `COc1cc2nc(N3CCN(C(=O)C4CCCO4)CC3)nc(N)c2cc1OC` (stereo not shown) [terazosin] as the molecule, how does the “Total Symptom Score Mean Change” value (6 mo. treatment, 428 patients, mean baseline 10.4) read?
**A.** −4.5

**Q.** And the “Irritative Symptom Score Mean Change” value (9 mo. treatment, 379 patients, mean baseline 4.4)?
**A.** −1.4

**Q.** What about the “Obstructive Symptom Score Mean Change” value (9 mo. treatment, 379 patients, mean baseline 6.1) of the same molecule?
**A.** −3.4

**Q.** What about the “Total Symptom Score Mean Change” value (9 mo. treatment, 379 patients, mean baseline 10.5) of the same molecule?
**A.** −4.7

**Q.** And the “Irritative Symptom Score Mean Change” value (12 mo. treatment, 347 patients, mean baseline 4.3)?
**A.** −1.2

**Q.** And the “Obstructive Symptom Score Mean Change” value (12 mo. treatment, 347 patients, mean baseline 6.1)?
**A.** −3.5

**Q.** What about the “Total Symptom Score Mean Change” value (12 mo. treatment, 347 patients, mean baseline 10.4) of the same molecule?
**A.** −4.8

**Q.** What about the “Irritative Symptom Score Mean Change” value (15 mo. treatment, 281 patients, mean baseline 4.2) of the same molecule?
**A.** −1.2

**Q.** And the “Obstructive Symptom Score Mean Change” value (15 mo. treatment, 281 patients, mean baseline 6.1)?
**A.** −3.8

**Q.** And the “Total Symptom Score Mean Change” value (15 mo. treatment, 281 patients, mean baseline 10.3)?
**A.** −5.0

**Q.** What about the “Irritative Symptom Score Mean Change” value (18 mo. treatment, 263 patients, mean baseline 4.2) of the same molecule?
**A.** −1.1

**Q.** What about the “Obstructive Symptom Score Mean Change” value (18 mo. treatment, 263 patients, mean baseline 6.1) of the same molecule?
**A.** −3.7

**Q.** What about the “Total Symptom Score Mean Change” value (18 mo. treatment, 263 patients, mean baseline 10.3) of the same molecule?
**A.** −4.9

**Q.** And the “Irritative Symptom Score Mean Change” value (21 mo. treatment, 231 patients, mean baseline 4.2)?
**A.** −1.3

**Q.** What about the “Obstructive Symptom Score Mean Change” value (21 mo. treatment, 231 patients, mean baseline 6.3) of the same molecule?
**A.** −4.0

**Q.** And the “Total Symptom Score Mean Change” value (21 mo. treatment, 231 patients, mean baseline 10.5)?
**A.** −5.2

**Q.** What about the “Irritative Symptom Score Mean Change” value (24 mo. treatment, 207 patients, mean baseline 4.2) of the same molecule?
**A.** −1.2

**Q.** What about the “Obstructive Symptom Score Mean Change” value (24 mo. treatment, 207 patients, mean baseline 6.2) of the same molecule?
**A.** −3.8

**Q.** What about the “Total Symptom Score Mean Change” value (24 mo. treatment, 207 patients, mean baseline 10.4) of the same molecule?
**A.** −5.0

**Q.** And the “Irritative Symptom Score Mean Change” value (27 mo. treatment, 96 patients, mean baseline 4.2)?
**A.** −1.2

**Q.** What about the “Obstructive Symptom Score Mean Change” value (27 mo. treatment, 96 patients, mean baseline 6.6) of the same molecule?
**A.** −3.8

**Q.** What about the “Total Symptom Score Mean Change” value (27 mo. treatment, 96 patients, mean baseline 10.7) of the same molecule?
**A.** −5.0

**Q.** And the “Irritative Symptom Score Mean Change” value (30 mo. treatment, 64 patients, mean baseline 4.6)?
**A.** −1.3

**Q.** What about the “Obstructive Symptom Score Mean Change” value (30 mo. treatment, 64 patients, mean baseline 6.7) of the same molecule?
**A.** −4.0

**Q.** And the “Total Symptom Score Mean Change” value (30 mo. treatment, 64 patients, mean baseline 11.3)?
**A.** −5.3
